According to PubChem BioAssay (NCATS):
The shares of active, inactive and inconclusive entries below differ from those in the screen. For some of these results: Potencies of inconclusive entries are doubtful fits and often do not repeat. For some of these results: A note “side channel” means that the fit belongs to a control or component signal, not to the main read-out. Calls of active or inactive are those of the source. Unless noted, the call rests on the fitted dose curve.

Key:
[1] = Cell Viability - NIH 3T3 (AID 541; active means well fitted curve in the direction sought with a large enough effect; inconclusive means small, poorly fitted or top-dose-only effect, or another doubt; inactive means no such curve, though single readings can be large; an effect the other way counts as inactive or inconclusive;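 further: cells exposed to compound for 40 hours; plate controls were DMSO alone for no effect and tamoxifen positive control for full effect; nearly all actives have a fitted effect of over 25% in size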); conditions: NIH 3T3 cell viability, qHTS; activity change, negative = cytotoxicity: at 92.2 µM (top of the series)
Summary of the method: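 AC50 values reflect concentration-dependent loss of intracellular ATP in NIH 3T3 cells after 40 hr treatment in complete culture medium, quantified by luciferase-based luminescence.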

[2] = MultiTox-Fluor Cytotoxicity Assay - LYMP1-002 - Dead Cells (AID 960; active means well fitted curve in the direction sought with a large enough effect; inconclusive means small, poorly fitted or top-dose-only effect, or another doubt; inactive means no such curve, though single readings can be large; an effect the other way counts as inactive or inconclusive; further: potency means the concentration at half of the fitted maximal effect; nearly all actives have a fitted effect of over 60% in size); conditions: LYMP1-002 lymphoblastoid cells, dead-cell protease fluorescence; cytotoxicity (dead cells): at 46.1 µM (top of the series)
Summary of the method: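 Acute cytotoxicity in a human lymphoblastoid line is scored as rising dead-cell protease signal after 16 hr exposure at 37 C, measured fluorometrically (485/520).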

[3] = Cell Viability - LYMP2-019 (AID 973; active means well fitted curve in the direction sought with a large enough effect; inconclusive means small, poorly fitted or top-dose-only effect, or another doubt; inactive means no such curve, though single readings can be large; an effect the other way counts as inactive or inconclusive;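 further: cells exposed to compound for 24 h at 37 °C; 0% = DMSO alone and full effect = 92 µM tetraoctylammonium bromide; nearly all actives have a fitted effect of over 55% in size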)
Summary of the method: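 Cells plated at 2500/well and allowed 5 hr at 37 C before compound addition. After 24 hr incubation, CellTiter-Glo reagent was added, plates sat 30 min at room temperature, and luminescence was recorded.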

[4] = Cell Viability - LYMP2-026 (AID 989; active means well fitted curve in the direction sought with a large enough effect; inconclusive means small, poorly fitted or top-dose-only effect, or another doubt; inactive means no such curve, though single readings can be large; an effect the other way counts as inactive or inconclusive;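 further: cells exposed to compound for 24 h at 37 °C; on the % scale 0 is the no-effect control and ±100 the full control effect; nearly all actives have a fitted effect of over 50% in size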)
Summary of the method: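 Concentration-dependent loss of intracellular ATP in human lymphoblastoid cells after 24 hr at 37 C, quantified by luciferase luminescence. AC50 derived from standard Hill equation.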

[5] = qHTS Assay for Identification of Small Molecule Inducers of Hypoxia Response (AID 2120; active means well fitted curve in the direction sought with a large enough effect in the signal ratio, with a control signal flat, not every such curve was filed as active; inconclusive means small, poorly fitted or top-dose-only effect, or a change in a side signal; inactive means no such curve, though single readings can be large or run the other way; the % refers to the signal ratio; further: potency means the concentration at half of the fitted maximal effect); conditions: hypoxia response reporter cells, beta-lactamase ratio readout; activation: at 104 µM (top of the series)
Summary of the method: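 Induction of beta-lactamase reporter activity was measured in CellSensor HRE-bla ME-180 cells after 17 h compound treatment at 37 degrees C, using CCF4 substrate and the 460nm/530nm emission ratio to derive AC50 values.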

[6] = target: Glucocorticoid receptor (Homo sapiens) (UniProt P04150); assay: qHTS assay for small molecule agonists of glucocorticoid receptor signaling (AID 588532; active means well fitted curve in the direction sought with a large enough effect in the signal ratio, with a control signal flat; inconclusive means small, poorly fitted or top-dose-only effect, or a change in a side signal; inactive means no such curve, though single readings can be large or run the other way; the % refers to the signal ratio; further: potency means the concentration at half of the fitted maximal effect); conditions: HeLa MMTV-bla, beta-lactamase ratio, agonist, 18 h; activation: hits give high values, percent of dexamethasone control, DMSO zero
Summary of the method: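 MMTV-bla HeLa beta-lactamase reporter cells in 1% charcoal/dextran FBS medium, compounds up to 92 uM for 18 h at 37 C, CCF4 readout; normalized to 0.1 uM dexamethasone (100%), EC50 and efficacy from Hill fits.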

[7] = target: Peroxisome proliferator-activated receptor gamma (Homo sapiens) (UniProt P37231); assay: qHTS assay for small molecule agonists of peroxisome proliferator-activated receptor gamma signaling (AID 588536; active means well fitted curve in the direction sought with a large enough effect in the signal ratio, with a control signal flat, not every such curve was filed as active; inconclusive means small, poorly fitted or top-dose-only effect, or effect the other way, or a change in a side signal; inactive means no such curve, though single readings can be large or run the other way; the % refers to the signal ratio; further: potency means the concentration at half of the fitted maximal effect); conditions: HEK293 PPARg-UAS-bla, beta-lactamase ratio, 16 h; activation: at 76.7 µM (top of the series), percent of rosiglitazone response, DMSO as zero
Summary of the method: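 GeneBLAzer PPAR-gamma-UAS-bla HEK293 cells in 1% charcoal/dextran-treated FBS medium were treated 16 h at 37 C with compounds. Beta-lactamase activity was read by CCF4 ratio (460/530 nm). Response was normalized to 2 uM rosiglitazone (100%) and DMSO, then Hill-fitted for EC50 and efficacy.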

[8] = target: Peroxisome proliferator-activated receptor gamma (Homo sapiens) (UniProt P37231); assay: qHTS assay for small molecule antagonists of peroxisome proliferator-activated receptor gamma signaling (AID 588537; active means well fitted inhibition curve with a large enough effect in the signal ratio, with a control signal flat, not every such curve was filed as active; inconclusive means small, poorly fitted or top-dose-only effect, or effect the other way, or a change in a side signal; the % refers to the signal ratio;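 further: reporter cells co-stimulated with 50 nM rosiglitazone agonist during compound treatment; % of control where 0% means no effect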); conditions: HEK293 PPARg-UAS-bla, beta-lactamase ratio, antagonist mode; activity, negative = inhibition: at 76.8 µM (top of the series)
Summary of the method: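 Step one: plate 3000 HEK293 UAS-bla cells per well in medium with 1% stripped serum and hold 6-6.5 h at 37 C. Step two: add compound and 50 nM agonist for 16 h. Step three: CCF4 loading, fluorescence read.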

[9] = target: Vitamin D3 receptor (Homo sapiens) (UniProt P11473); assay: qHTS assay for small molecule antagonists of vitamin D receptor signaling (AID 588541); conditions: HEK293T VDR-UAS-bla, beta-lactamase ratio, antagonist mode; activity change, negative = inhibition: at 76.7 µM (top of the series);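 further: receptor activated by calcitriol during compound treatment; on the % scale 0 is the no-effect control and ±100 the full control effect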
[10] = target: Vitamin D3 receptor (Homo sapiens) (UniProt P11473); assay: qHTS assay for small molecule agonists of vitamin D receptor signaling (AID 588543); conditions: HEK293T VDR-UAS-bla, beta-lactamase ratio, 16 h; activation: at 76.8 µM (top of the series); further: potency means the concentration at half of the fitted maximal effect
Summary of the method: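 Agonist-mode beta-lactamase reporter: HEK293T VDR-UAS-bla cells in charcoal-stripped 2% FBS, compound series 16 h 37 C, CCF4 2 h RT. EC50 from Hill fit, scaled against DMSO and 50 nM calcitriol control.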

[11] = target: Retinoic acid receptor RXR-alpha (Homo sapiens) (UniProt P19793); assay: qHTS assay for small molecule agonists of retinoid X receptor alpha signaling (AID 588544); conditions: HEK293T RXRa-UAS-bla, beta-lactamase reporter, 18 h; activation: at 76.7 µM (top of the series) unless noted; further: potency means the concentration at half of the fitted maximal effect
[12] = target: Thyroid hormone receptor beta (Homo sapiens) (UniProt P10828); assay: qHTS assay for small molecule agonists of thyroid hormone receptor beta signaling (AID 588545); conditions: TR-UAS-bla GripTite HEK 293, beta-lactamase ratio, agonist mode, 18 h; activation: at 76.7 µM, percent of T3 response, DMSO as zero; further: potency means the concentration at half of the fitted maximal effect
Summary of the method: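 TR-UAS-bla GripTite HEK 293 cells (2500/well, medium with 2% charcoal/dextran FBS) were treated in agonist mode for 18 h at 37 C, titrated. Beta-lactamase was read by CCF4 ratio after 2 h; normalized to 10 nM T3 (100%) and DMSO, Hill-fitted for EC50 and efficacy.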

[13] = target: Retinoic acid receptor RXR-alpha (Homo sapiens) (UniProt P19793); assay: qHTS assay for small molecule antagonists of retinoid X receptor alpha signaling (AID 588546; active means well fitted inhibition curve with a large enough effect in the signal ratio, with a control signal flat, not every such curve was filed as active; inconclusive means small, poorly fitted or top-dose-only effect, or effect the other way, or a change in a side signal; inactive means no such curve, though single readings can be large or run the other way; the % refers to the signal ratio;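 further: cells stimulated with 9-cis-retinoic acid as agonist; on the % scale 0 is the no-effect control and ±100 the full control effect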); conditions: HEK293T RXRa-UAS-bla, beta-lactamase ratio, antagonist mode
Summary of the method: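 Beta-lactamase reporter inhibition, read as CCF4 fluorescence ratio (ex 405, em 460/530 nm) after 2 h at RT. HEK293T UAS-bla cells, 2500/well, were stimulated with 9-cis-RA at 500 or 100 nM final alongside test compound for 18 h at 37 C.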

[14] = target: Thyroid hormone receptor beta (Homo sapiens) (UniProt P10828); assay: qHTS assay for small molecule antagonists of thyroid hormone receptor beta signaling (AID 588547; active means well fitted inhibition curve with a large enough effect in the signal ratio, with a control signal flat, not every such curve was filed as active; inconclusive means small, poorly fitted or top-dose-only effect, or effect the other way, or a change in a side signal; the % refers to the signal ratio; further: potency means the concentration at half of the fitted maximal effect); conditions: TR-UAS-bla HEK293, beta-lactamase ratio, antagonist mode, 18 h
Summary of the method: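 TR-UAS-bla GripTite HEK293 cells in 2% charcoal/dextran FBS medium; compounds 0.59 nM to 92 uM with T3 at 0.4nM final, 18 h at 37 C. Beta-lactamase read by CCF4 fluorescence (460/530 nm); Hill fits gave IC50 and efficacy.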

[15] = qHTS assay for small molecule agonists of the antioxidant response element (ARE) signaling pathway (AID 651741; active means well fitted activation curve with a large enough effect in the signal ratio; inconclusive means small, poorly fitted or top-dose-only effect, or effect the other way, or a change in a side signal; the % refers to the signal ratio; further: potency means the concentration at half of the fitted maximal effect); conditions: HepG2 ARE-bla reporter, beta-lactamase FRET ratio, 16 h; activation: at 96 µM (top of the series) unless noted
Summary of the method: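 HepG2 ARE-bla cells plated at 2,000 cells/well and incubated 5 h at 37 C/5% CO2 received 23 nL compound in DMSO. After 16 h at 37 C, LiveBLAzer B/G FRET substrate was applied for 2 h at room temperature and fluorescence read.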

[16] = qHTS assay for small molecule activators of the nuclear factor-kappa B (NF-kB) signaling pathway (AID 651749; active means well fitted activation curve with a large enough effect in the signal ratio; inconclusive means small, poorly fitted or top-dose-only effect, or a change in a side signal; the % refers to the signal ratio; further: potency means the concentration at half of the fitted maximal effect); conditions: NF-kB-bla ME-180 cells, beta-lactamase FRET ratio, 16 h; activation: hits give high values
Summary of the method: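 Incubation lasted 16 hr at 37C in 5% CO2 after 23 nL compound addition to ME-180 NF-kB-bla cells. Activation appears as beta-lactamase-mediated FRET loss.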

[17] = qHTS assay for small molecule disruptors of the mitochondrial membrane potential - 1 hr assay (AID 651754); conditions: ratio change, negative = depolarisation: at 92.2 µM (top of the series); further: on the % scale 0 is the no-effect control and ±100 the full control effect; nearly all actives have a fitted effect of over 35% in size
Summary of the method: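 Steps: seed HepG2 cells and let attach overnight; pin-transfer compound or vehicle; incubate 1 hr at 37C; add Mito-MPS dye for 30 min; read two-channel fluorescence for monomer and aggregate forms.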

[18] = qHTS assay for small molecule disruptors of the mitochondrial membrane potential - 5 hr assay (AID 651755); conditions: JC-1-type ratio dye; ratio change, negative = disruption: at 92.2 µM (top of the series); further: on the % scale 0 is the no-effect control and ±100 the full control effect; nearly all actives have a fitted effect of over 40% in size
Summary of the method: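 HepG2 cells (2,000/well), attached overnight, exposed to compound 5 hr at 37C, then Mito-MPS dye 30 min. Fluorescence read for monomers (490/535 nm) and aggregates (540/590 nm).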

[19] = qHTS assay to identify small molecules that stimulate interleukin-8 (IL-8) secretion (AID 651758; active means well fitted activation curve with a large enough effect in the signal ratio; inconclusive means small, poorly fitted or top-dose-only effect, or effect the other way, or a change in a side signal; the % refers to the signal ratio; further: 0% is about no effect); conditions: HTRF ratio (665/615); activation: at 92.2 µM (top of the series)
Summary of the method: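 THP-1 cells (2000/well) exposed to compound 16 h at 37 C; secreted IL-8 then detected by HTRF with cryptate- and XL665-labelled anti-IL-8 antibody pair after 1-3 h at room temperature.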
Tags describe the fitted curve by direction and shape or compound fluorescence and quenching.

Chain of UniProt P19793 (P19793 whole entry, looked up): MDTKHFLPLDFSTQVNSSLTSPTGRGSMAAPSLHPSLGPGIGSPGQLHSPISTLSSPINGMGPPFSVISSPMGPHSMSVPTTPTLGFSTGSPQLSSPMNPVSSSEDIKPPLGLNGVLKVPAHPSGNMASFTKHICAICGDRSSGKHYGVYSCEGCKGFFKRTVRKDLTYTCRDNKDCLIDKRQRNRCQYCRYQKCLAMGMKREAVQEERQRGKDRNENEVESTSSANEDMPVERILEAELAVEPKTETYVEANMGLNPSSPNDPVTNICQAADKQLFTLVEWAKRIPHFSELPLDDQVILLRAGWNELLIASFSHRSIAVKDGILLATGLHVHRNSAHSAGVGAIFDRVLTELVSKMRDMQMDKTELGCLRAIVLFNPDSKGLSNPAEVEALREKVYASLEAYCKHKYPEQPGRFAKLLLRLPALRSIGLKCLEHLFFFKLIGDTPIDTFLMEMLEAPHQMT
Chain of UniProt P10828 (P10828 whole entry, looked up): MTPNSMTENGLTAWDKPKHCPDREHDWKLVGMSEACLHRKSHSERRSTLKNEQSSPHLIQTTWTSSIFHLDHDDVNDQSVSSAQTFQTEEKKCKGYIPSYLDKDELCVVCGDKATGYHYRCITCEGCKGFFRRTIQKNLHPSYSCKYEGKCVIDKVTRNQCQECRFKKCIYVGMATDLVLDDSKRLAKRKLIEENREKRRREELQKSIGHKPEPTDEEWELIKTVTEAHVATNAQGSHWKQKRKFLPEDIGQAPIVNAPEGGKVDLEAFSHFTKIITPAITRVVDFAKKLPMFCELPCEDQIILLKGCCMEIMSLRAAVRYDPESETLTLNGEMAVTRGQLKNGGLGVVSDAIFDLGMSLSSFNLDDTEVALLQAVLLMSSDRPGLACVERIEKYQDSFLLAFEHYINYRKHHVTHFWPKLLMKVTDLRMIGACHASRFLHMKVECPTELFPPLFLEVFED

O=C(OCC(COC(=O)c1ccccc1)(COC(=O)c1ccccc1)COC(=O)c1ccccc1)c1ccccc1
inconclusive: Potency [2] 0.501 µM [cytotoxic, full curve] | Potency [5] 31.6 µM [side channel, falling, partial curve] | Potency [6] 25.1 µM [side channel, falling, full curve, poor fit] | Potency [7] 39.8 µM [cytotoxic, side channel, partial curve] | activity, negative = inhibition [8] -8.74% | activity change, negative = inhibition [9] -16.3% | Potency [10] 35.5 µM [side channel, falling, partial curve] | Potency [11] 35.5 µM [cytotoxic, side channel, partial curve, poor fit] | Potency [12] 14.1 µM [side channel, falling, full curve, poor fit] | max response [13] -18.1% | Potency [14] 35.5 µM [cytotoxic, side channel, partial curve, poor fit] | Potency [15] 75 µM [cytotoxic, partial curve, poor fit] | Potency [16] 11.2 µM [side channel, falling, full curve] | ratio change, negative = depolarisation [17] -37% | ratio change, negative = disruption [18] -20.5%
inactive: activity change, negative = cytotoxicity [1] -15.7% | Potency [3] | Potency [4] | Potency [19]
